# PubChem BioAssay AID624296 (National Center for Advancing Translational Sciences (NCATS), 2012)
# Hit rate of the full screen: of about 350,000 compounds, about 9,900 (2.8%) were called active. The shares of active, inactive and inconclusive entries below differ from those in the screen. Calls come from the whole dose curve; as a rule, active = well fitted activation curve with a large enough effect; inconclusive = small, poorly fitted or top-dose-only effect; inactive = no such curve, though single readings can be large or run the other way. No potency is given beside an inconclusive call; the fits are too rough.
# Assay: A quantitative high throughput screen for small molecules that induce DNA re-replication in MCF 10a normal breast cells. For activity, positive = re-replication: % of control where 0% means no effect. Note: nearly all actives have a fitted effect of over 50% in size.
# Details: MCF 10A DNA re-replication, Hoechst nuclear intensity, 48 h; activity, positive = re-replication: at 46.1 µM (top of the series)
# Potency is the fitted concentration of half-maximal effect; tags give direction and shape of the fitted curve.
Compound,Potency,"activity, positive = re-replication"
COc1cccc(CC(NC(C)=O)C(=O)NC2CCN(c3c(Cc4ccccc4)c(C)nc4ncnn34)CC2)c1 (configuration not stated),"inconclusive [activator, partial curve, poor fit]",inconclusive: 98.1% [activator]
O=C(COC(=O)/C=C/c1cccc(C(F)(F)F)c1)NC(=O)NCc1ccco1,"inconclusive [activator, single point]",–
CCNc1nc(Nc2ccc(C)c(Cl)c2)c2cnn(C)c2n1,inactive,–
Cc1ccc(C)c(C(=O)CN2C(=O)C(=O)N(C3CCCC3)C2=O)c1,"inconclusive [activator, single point]",–
O=C(CNC(=O)c1sc2ccccc2c1Cl)NC1CC1,inactive,–
S=C(NCCc1ccccc1)Nc1ccc(Br)cc1,"inconclusive [activator, single point]",–
CC(=O)NC(c1ccc(Cl)cc1Cl)c1ccc2cccnc2c1O (configuration not stated),"inconclusive [activator, single point]",–
O=C(C1=NN[C@@H]2C(=O)N(c3cccc(F)c3)C(=O)[C@H]12)C(c1ccccc1)c1ccccc1,inactive,–
CC(C)(C)Nc1nc(Oc2ccc(=O)[nH]n2)nc(N2CCOCC2)n1,"inconclusive [activator, full curve, poor fit]",–
COc1ccc(SC[C@H](Cc2ccccc2)N2CC[C@@H](NC(=O)OCc3ccccc3)CCC2=O)cc1,"inconclusive [activator, single point]",–
CCN1/C(=C/c2ccc3cccc(C)c3[n+]2CC)Sc2ccccc21,inactive,–
CCCCCCNC(=O)c1cn(CC)c2cc(N3CCN(C)CC3)c(F)cc2c1=O,"inconclusive [activator, single point]",–
CCc1ccc(NC(=O)CSc2nccn(-c3ccc4c(c3)OCCO4)c2=O)cc1,"inconclusive [activator, partial curve, poor fit]",–
CC/C(=N\NC(=O)c1ccc2c(c1)OCO2)c1ccccc1,"inconclusive [activator, single point]",–
Cc1cc(-n2c(C)cc(C(=O)CSc3nnc4sc5ccccc5n34)c2C)no1,inactive,–
C[C@@H]1CC=C[C@H]2[C@H]1C(=O)N(Cc1ccccc1)[C@H]2c1ccc(/C=C/c2ccccc2)cc1F,–,inconclusive: 121% [activator]
CCOC(=O)CCCCC(=O)c1[nH]c(=O)[nH]c1CSc1nc(-c2ccccc2)c(C#N)c(=O)[nH]1,"inconclusive [activator, partial curve, poor fit]",–
CCCCOC(=O)n1c(=O)oc2cc(S(=O)(=O)N3CCCCC3)ccc21,"inconclusive [activator, single point]",–
COc1ccccc1Cn1c(=S)[nH]c2cc(C(=O)NCCCN3CCOCC3)ccc2c1=O,"inconclusive [activator, partial curve]",–
Cc1ccc2[nH]c3c(c2c1)CN(C(=O)CN1CCCCC1)CC3,"inconclusive [activator, partial curve, poor fit]",–
S=c1[nH]nc(-c2ccccc2)n1/N=C/c1ccc(-c2ccccc2Cl)o1,active: 8.2 µM,–

Compound,Potency,"activity, positive = re-replication"
CC1(C)N=C(N)NC(Nc2ccc(Br)cc2)=N1,"inconclusive [activator, partial curve, poor fit]",–
CSc1cccc(CN2CCC(Oc3cccc(C(=O)N4CCCC4)c3)CC2)c1,"inconclusive [activator, single point]",–
COc1ccccc1C(=O)NCC1CCN(c2ccc(S(=O)(=O)N3CCOCC3)cc2)CC1,active: 6.51 µM,–
O=C1CN(C(=O)c2ccccc2F)c2ccccc2N1,inactive,–
CCn1c(SCC(=O)Nc2ccc3c(c2)oc2ccccc23)nnc1-c1ccc(N)cc1,"inconclusive [activator, partial curve]",–
O=C(c1ccc(CS(=O)Cc2ccccc2Cl)o1)N1CCN(c2ccccn2)CC1 (configuration not stated),inactive,–
CC(C)(C)C(=O)Nc1ccc(/C=C/C(=O)c2ccco2)cc1,"inconclusive [activator, partial curve, poor fit]",–
Cc1ccc(-c2nn(-c3ccccc3)cc2/C=N/O)cc1,"inconclusive [activator, single point]",–
COc1ccccc1C(=O)NNC(=S)NC(=O)c1cc(OC)c(OC)c(OC)c1,"inconclusive [activator, partial curve, poor fit]",–
COC(=O)[C@H](CCSC)NC(=O)Cn1cc(C)c(=O)[nH]c1=O,inactive,–
CC(=O)Oc1c(S(=O)(=O)c2ccc(C)cc2)c(C)nn1C(C)(C)C,"inconclusive [activator, single point]",–
Nc1c(C(=O)Nc2ccccc2)sc2nc3c(c(-c4ccco4)c12)CCC3,"inconclusive [activator, full curve]",–
O=C(O)c1cc(-c2ccco2)nc2cc3ccccc3cc12,"inconclusive [activator, full curve, poor fit]",–
O=C(NNC(=O)c1cccnc1)Nc1ccccc1,"inconclusive [activator, single point]",–
O=C(Nc1ccc(CN2CCOCC2)cc1)c1ccc(-c2cc(Cl)ccc2Cl)o1,"inconclusive [activator, single point]",–
O=C(Nc1nc2ccccc2s1)c1ccc2c(c1)OCO2,"inconclusive [activator, partial curve, poor fit]",–
Cc1ccc(CN2CC(C(=O)Nc3ccc(C)c(S(=O)(=O)N4CCCCC4)c3)CC2=O)cc1 (configuration not stated),"inconclusive [activator, partial curve, poor fit]",–
O=C(Nc1ccc(OC(F)F)cc1)Nc1cccc(C(F)(F)F)c1,"inconclusive [activator, single point]",–
COc1ccc(/C=N/NC(=O)c2cccnc2)cc1CN1CCN(c2ccc(F)cc2)CC1,inactive,–
COc1ccc(-c2cc(C(F)(F)F)n3nc(C(=O)NCc4ccco4)c(Cl)c3n2)cc1,"inconclusive [activator, single point]",–
